# Measured values from PubChem BioAssay AID1508623 (National Center for Advancing Translational Sciences (NCATS), 2021).
# Hit rate of the full screen: of about 48,000 compounds, about 450 (0.94%) were called active. Not shown: some 19% with an inconclusive outcome. Calls follow the shape of the dose curve; as a rule, active = well fitted inhibition curve with a large enough effect; inconclusive = small, poorly fitted or top-dose-only effect; inactive = no such curve, though single readings can be large or run the other way. The list shows a part of the results.
# Experiment: Primary qHTS for Identification of Small Molecule Inhibitors of Huntingtin Promoter Activity; also: nearly all actives have a fitted effect of over 50% in size
# Conditions: HEK293 HTT promoter firefly luciferase reporter (activity 0% = vehicle and -100% = no light), 24 h; series mostly up to 57.5 µM; activity change, negative = inhibition: at the top concentration
# Method in brief: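 HEK293 Fluc reporter, 2,500 cells/well, 24 h pre-culture; cpds up to 57.5 uM final, 24 h 37 degrees C; Dual-Glo, 10 min RT; normalized vehicle = 0%, zero RLU = -100%.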
row,SMILES,"activity change, negative = inhibition"
1,COc1cccc(C(=O)N(Cc2ccc(C)o2)C2CCS(=O)(=O)C2)c1 (stereo not drawn),inactive: -6.97%
2,COc1ccc(-c2cc(C(F)(F)F)nc(NCc3ccc(F)cc3)n2)cc1,inactive: -24.9%
3,O=C(COCc1cc(-c2cccs2)on1)Nc1cc(C(F)(F)F)ccc1Cl,inactive: -7.11%
4,CC(C)OCCCNC(=O)CCCN1C(=O)CCn2nc(-c3cccn3C)cc21,inactive: -13.2%
5,Cc1cc(C)c(NC(=O)CSc2nc3c([nH]c4ccccc43)c(=O)n2C)c(C)c1,inactive: 4.01%
6,O=C(CN1CCN(Cc2ccc3c(c2)OCO3)CC1)N1c2ccccc2Sc2ccccc21,inactive: 5.8%
7,Nc1ccn([C@@H]2O[C@H](CO)[C@@H](O)[C@H]2O)c(=O)n1,inactive: -19.3%
8,O=C(/C=C/c1ccccc1)OCc1ccccc1,inactive: 17.9%
9,COc1ccc(CCNC(=O)c2ccc(Cn3c(=O)[nH]c4cc(OC)c(OC)cc4c3=O)cc2)cc1OC,inactive: -8.23%
10,CCCOc1cccc(C2c3c(oc4ccc(F)cc4c3=O)C(=O)N2c2nc(C)c(C(C)=O)s2)c1 (stereo not drawn),inactive: -19.2%
11,CN1CCN(C(CNC(=O)c2c(F)cccc2F)c2ccc3c(c2)OCO3)CC1 (stereo not drawn),inactive: -3.21%
12,CCN(C(=O)Cn1ncc2c(=O)oc3ccccc3c21)c1ccccc1F,inactive: 1.03%
13,O=c1c2ccccc2n(Cc2cccc(Cl)c2)c(=O)n1Cc1ccccc1,inactive: -40.2%
14,COCCc1nn2c(=O)cc(COC(=O)c3ccc(Br)cc3)nc2s1,inactive: 9.6%
15,CCC(C)NC(=O)c1sc2nc3n(c(=O)c2c1C)CCC3 (stereo not drawn),inactive: 16.9%
16,COc1cccc2c1cc1c(=O)n(CC(=O)N3CCC(C)CC3)nc(C)n12,inactive: -4.09%
17,O=c1oc2ccccc2cc1-c1nc(-c2cccs2)no1,inactive: 50.3%
18,CCC(=O)Nc1sc2c(c1C(=O)Nc1ccc(Br)cc1)CCCCC2,inactive: -12.4%
19,Cc1ccc(NC(=O)CCN2C(=O)c3ccccc3Sc3ncccc32)c(Cl)c1,inactive: -21%
20,COc1ccccc1NC(=O)c1sc2nc(C)c(C(=O)Nc3ccc(C)cc3C)c(-c3ccccc3Cl)c2c1N,inactive: -6.25%
21,Cc1ccc2oc(=O)c3cc(C(=O)NCCc4ccc(Cl)cc4)sc3c2c1,inactive: -8.46%

row,SMILES,"activity change, negative = inhibition"
1,CCS(=O)(=O)N1CCc2cc(C(=O)NCc3ccccc3Cl)ccc21,inactive: -3.97%
2,CCCCc1nn2c(=O)cc(COC(=O)c3ccccc3C)nc2s1,inactive: 20%
3,CCc1ccccc1NC(=O)NC(CC)Cn1nnc2ccccc2c1=O (stereo not drawn),inactive: -0.437%
4,Cc1ccc(C)c(NC(=O)CSc2nc(=O)n(Cc3ccncc3)c3c2CCC3)c1,inactive: -18.8%
5,COC(=O)c1cc2sc(C)cc2n1Cc1nc(-c2ccc(C)cc2)oc1C,inactive: -0.5%
6,CC(=O)N1c2ccc(S(=O)(=O)NCCC(=O)N(C)Cc3ccccc3)cc2CC1C (stereo not drawn),inactive: -20%
7,Cc1ccc(Nc2c(-c3ccc(C)cc3)nc3c(C)cccn23)cc1,inactive: -13.5%
8,CN(C)CCC(c1ccccc1)c1ccccn1 (stereo not drawn),inactive: 14%
9,CCOC(=O)c1ccc(NC(=O)Cn2cnc3sc(C(=O)OCC)c(C)c3c2=O)cc1,inactive: -29.6%
10,CCc1ccc(NC(=O)CSc2nc3c([nH]c4ccccc43)c(=O)n2-c2cccc(OC)c2)cc1,inactive: -27.9%
11,COc1cc(C)ccc1OCCSc1nc2ccc(NC(C)=O)cc2s1,inactive: -24.7%
12,CCCCCn1c(=O)c2c(nc3n2CCN3c2ccc(Br)cc2)n(C)c1=O,inactive: 1.92%
13,CCC(Sc1nnc2c3ccccc3n(C)c2n1)C(=O)Nc1nnc(C(C)C)s1 (stereo not drawn),inactive: 6.33%
14,CCOc1ccc(NC(=O)CSc2nc(=O)[nH]c3c2CCC3)cc1,inactive: -27.6%
15,COc1ccc(-c2cc3ccc(O)c(CN4CCCC4)c3oc2=O)cc1OC,inactive: 40.5%
16,Cc1ccc(C)c(CNC(=O)c2sc3ncnc(N(C)C4CCCCC4)c3c2C)c1,inactive: -13.3%
17,Cc1cc(F)ccc1NC(=O)CCSc1nc(-c2ccco2)cc(C(F)(F)F)n1,inactive: -17.4% [at 11.5 µM]
18,COC(=O)COc1ccc(Oc2nc(NC(C)(C)C)nc(N(C)C)n2)nn1,inactive: -6.38%
19,COc1ccc(CNC(=O)c2cn(-c3cccc(OC)c3)c(=O)c3ccccc23)cc1,inactive: -9.35%
20,Cc1ccc(C(=O)NC2(C(F)(F)F)N=C(c3ccccc3)N(C3CCCCC3)C2=O)cc1 (stereo not drawn),inactive: -14.8%
21,CCOC(=O)c1c(C)c(-c2ccccc2)n(CC(=O)Nc2cccc(C)c2C)c1C,inactive: 0.457%

row,SMILES,"activity change, negative = inhibition"
1,COc1ccc(C(=O)NCC(c2ccc3c(c2)OCO3)N2CCOCC2)cc1OC (stereo not drawn),inactive: -12.6%
2,CCn1c(CC2C(=O)N(C)c3ccc(Br)cc32)nc2ccccc2c1=O (stereo not drawn),inactive: -11.3%
3,Cc1ccc2nc(N(Cc3cccnc3)C(=O)CCOc3ccccc3)sc2c1,inactive: -9.48%
4,CCc1cc2c(cc3c(=O)n(CC(=O)NCCOC)nc(CC)n32)s1,inactive: -2.7%
5,CCCN1C(=O)C2(c3ccccc31)c1c(oc3ccccc3c1=O)C(=O)N2CCCOC(C)C (stereo not drawn),inactive: -16.5%
6,Cc1cccc(-c2nc(SCC(=O)N(C)c3ccccc3)c3c(=O)n(C)c(=O)n(C)c3n2)c1,inactive: -1.98%
7,O=C(O)c1ccc(C2Nc3ccccc3-c3nnc(SCc4ccc(Cl)cc4)nc3O2)cc1 (stereo not drawn),inactive: 2.06%
8,COc1cc(OC)c(NC(=O)N2CC=C(c3c[nH]c4ccccc34)CC2)cc1Cl,inactive: -26.3%
9,COc1cccc(C(=O)Nc2ccc(C(=O)OCc3cc(=O)n4nc(C5CC5)sc4n3)cc2)c1,inactive: -12%
10,Cn1c(=O)cc(SCC(=O)N2CCN(c3ccccc3)CC2)c2ccccc21,inactive: 1.4%
11,CC1CCN(c2cc(N3CCN(C)CC3)ccc2NC(=O)c2cc(C#N)c[nH]2)CC1,inactive: -6.69%
12,O=C(c1cccc(Cl)c1)N1CCC(c2nc3ccccc3o2)CC1,inactive: -26%
13,O=C(Cn1c(=O)n2nc(-c3cccc(F)c3)nc2c2ccccc21)N1CCN(c2ccccc2F)CC1,inactive: 5.49%
14,COc1ccc(OC)c(NC(=O)c2c(C)oc3ncnc(N4CCOCC4)c23)c1,inactive: 0.69%
15,CC1CCN(C(=O)C(C)Sc2nc(-c3ccccc3)cc(C(F)(F)F)n2)CC1 (stereo not drawn),inactive: -26.9%
16,CCCCn1c(=O)nc2n(-c3ccc(F)cc3)c3ccccc3cc-2c1=O,inactive: -12.3%
17,CC(Sc1nc2c([nH]c3ccccc32)c(=O)n1-c1ccccc1)c1ccccc1 (stereo not drawn),inactive: -22.5%
18,Cc1ccc(-c2cc(C(F)(F)F)n3ncc(-c4ccc(Cl)cc4)c3n2)cc1,inactive: -12.1%
19,COc1ccccc1NC(=O)C1=C(C)Nc2nc(SCc3cccc(F)c3)nn2C1c1ccc(C(=O)O)cc1 (stereo not drawn),inactive: -4.81%
20,COc1ccccc1N1CCN(C(=O)c2cc3c(=O)oc4ccccc4c3s2)CC1,inactive: 0.293%
21,CCOc1ccc(N2CC(c3nc4ccccc4n3CCOc3ccccc3)CC2=O)cc1 (stereo not drawn),inactive: -25.1%
